For test [1], the target named is Flag–PKA-RIα–EYFP1–154 (UniProt P10644). Nature of the test: split reporter; EYFP1–154 and EYFP155–238 fusions coexpressed in human HeLa cells (Lipofectamine); EYFP+ cells by flow cytometry (24 hours in the methods; 24 or 48 hours in the legend of Figure 1) or EYFP imaged by confocal microscopy (36 hours). On the technique in general: Flow cytometry measures light scatter and fluorescence of single cells or particles in a stream.

Amino acid sequences for entries named in this document (tags omitted). A change or cut given only in a name is not applied to a line headed by its entry. Residues count along the entry.
UniProt P10644: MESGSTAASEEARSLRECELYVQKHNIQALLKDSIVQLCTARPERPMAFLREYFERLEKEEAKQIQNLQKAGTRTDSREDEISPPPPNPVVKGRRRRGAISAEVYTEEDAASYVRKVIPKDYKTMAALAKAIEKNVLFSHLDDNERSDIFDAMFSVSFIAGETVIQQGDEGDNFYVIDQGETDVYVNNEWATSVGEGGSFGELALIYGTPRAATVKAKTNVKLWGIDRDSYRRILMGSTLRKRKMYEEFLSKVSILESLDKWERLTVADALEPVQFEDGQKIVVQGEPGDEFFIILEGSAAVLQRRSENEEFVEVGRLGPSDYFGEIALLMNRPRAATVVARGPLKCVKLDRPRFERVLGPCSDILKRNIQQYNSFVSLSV
UniProt P27694: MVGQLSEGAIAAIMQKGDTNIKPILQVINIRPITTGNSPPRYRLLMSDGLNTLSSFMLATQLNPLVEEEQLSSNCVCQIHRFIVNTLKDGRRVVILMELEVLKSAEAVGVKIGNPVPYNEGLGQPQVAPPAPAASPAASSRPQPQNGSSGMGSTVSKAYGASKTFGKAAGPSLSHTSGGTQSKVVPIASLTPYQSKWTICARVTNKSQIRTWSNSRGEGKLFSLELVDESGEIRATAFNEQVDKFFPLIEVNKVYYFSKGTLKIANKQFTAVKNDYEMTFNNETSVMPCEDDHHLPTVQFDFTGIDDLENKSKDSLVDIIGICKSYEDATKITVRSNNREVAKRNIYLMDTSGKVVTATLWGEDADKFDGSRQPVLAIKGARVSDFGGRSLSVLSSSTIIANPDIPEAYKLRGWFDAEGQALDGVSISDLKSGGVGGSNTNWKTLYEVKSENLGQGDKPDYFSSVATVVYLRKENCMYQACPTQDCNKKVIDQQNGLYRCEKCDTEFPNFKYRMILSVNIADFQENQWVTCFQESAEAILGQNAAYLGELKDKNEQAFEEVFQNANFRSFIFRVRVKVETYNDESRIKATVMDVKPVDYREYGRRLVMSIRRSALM
UniProt P13051: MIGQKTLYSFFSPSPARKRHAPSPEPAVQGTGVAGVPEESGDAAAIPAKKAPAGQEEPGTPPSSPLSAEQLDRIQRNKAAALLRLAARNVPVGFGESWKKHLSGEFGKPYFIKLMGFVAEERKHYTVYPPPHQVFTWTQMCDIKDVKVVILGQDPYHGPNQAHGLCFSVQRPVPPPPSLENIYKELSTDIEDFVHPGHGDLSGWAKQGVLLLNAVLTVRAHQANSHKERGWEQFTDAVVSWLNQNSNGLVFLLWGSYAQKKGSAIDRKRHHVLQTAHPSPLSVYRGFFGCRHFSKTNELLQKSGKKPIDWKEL
Flag–UngΔ(152–313)–EYFP1–154: residues 1-151 of P13051
Flag–Ung Δ(1-84)–EYFP1–154: residues 85-313 of P13051
UniProt P31947: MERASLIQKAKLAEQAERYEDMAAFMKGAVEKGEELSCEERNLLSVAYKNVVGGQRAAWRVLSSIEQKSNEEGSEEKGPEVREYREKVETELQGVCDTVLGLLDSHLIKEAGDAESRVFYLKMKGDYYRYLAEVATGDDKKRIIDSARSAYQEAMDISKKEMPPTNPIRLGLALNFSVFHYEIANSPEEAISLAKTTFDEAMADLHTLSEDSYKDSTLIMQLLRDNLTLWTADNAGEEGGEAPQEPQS
UniProt P31946: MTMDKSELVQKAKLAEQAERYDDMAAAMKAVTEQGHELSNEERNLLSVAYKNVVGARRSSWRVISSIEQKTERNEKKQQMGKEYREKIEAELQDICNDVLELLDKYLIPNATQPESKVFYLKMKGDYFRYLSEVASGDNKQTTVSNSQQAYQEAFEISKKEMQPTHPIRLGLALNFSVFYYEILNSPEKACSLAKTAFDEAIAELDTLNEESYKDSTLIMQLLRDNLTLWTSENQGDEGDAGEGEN
UniProt P27348: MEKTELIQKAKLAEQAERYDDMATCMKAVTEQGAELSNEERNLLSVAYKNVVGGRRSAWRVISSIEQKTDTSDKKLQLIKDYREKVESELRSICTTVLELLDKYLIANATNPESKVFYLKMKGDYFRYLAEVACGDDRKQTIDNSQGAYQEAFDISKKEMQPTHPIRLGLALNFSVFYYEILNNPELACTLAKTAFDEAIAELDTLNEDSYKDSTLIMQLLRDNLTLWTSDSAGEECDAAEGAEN
UniProt P61981: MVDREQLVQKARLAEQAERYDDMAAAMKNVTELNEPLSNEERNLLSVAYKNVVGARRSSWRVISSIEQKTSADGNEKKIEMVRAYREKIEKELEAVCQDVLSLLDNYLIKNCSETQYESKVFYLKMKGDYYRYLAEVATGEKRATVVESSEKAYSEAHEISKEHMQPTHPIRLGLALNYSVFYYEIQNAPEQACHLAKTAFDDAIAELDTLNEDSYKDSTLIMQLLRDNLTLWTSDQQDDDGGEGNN
UniProt P62258: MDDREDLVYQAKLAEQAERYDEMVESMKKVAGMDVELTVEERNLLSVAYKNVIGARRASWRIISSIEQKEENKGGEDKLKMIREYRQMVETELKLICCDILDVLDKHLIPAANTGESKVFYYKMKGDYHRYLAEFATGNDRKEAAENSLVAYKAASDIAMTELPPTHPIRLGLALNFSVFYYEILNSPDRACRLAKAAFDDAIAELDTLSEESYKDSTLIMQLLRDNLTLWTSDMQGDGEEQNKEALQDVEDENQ
UniProt Q04917: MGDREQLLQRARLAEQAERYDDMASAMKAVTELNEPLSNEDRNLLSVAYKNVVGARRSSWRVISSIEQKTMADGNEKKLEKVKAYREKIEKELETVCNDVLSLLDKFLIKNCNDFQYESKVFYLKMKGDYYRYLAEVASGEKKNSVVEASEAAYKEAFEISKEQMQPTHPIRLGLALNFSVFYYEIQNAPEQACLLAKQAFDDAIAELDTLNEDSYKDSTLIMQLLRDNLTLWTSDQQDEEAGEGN
UniProt P63104: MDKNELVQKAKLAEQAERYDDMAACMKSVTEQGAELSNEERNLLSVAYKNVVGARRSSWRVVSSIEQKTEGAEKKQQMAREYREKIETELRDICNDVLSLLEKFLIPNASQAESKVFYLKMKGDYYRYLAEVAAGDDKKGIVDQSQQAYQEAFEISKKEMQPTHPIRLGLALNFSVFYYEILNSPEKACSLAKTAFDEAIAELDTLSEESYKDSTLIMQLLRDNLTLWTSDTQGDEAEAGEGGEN

Test [2] has as its target Flag–RPA1–EYFP1–154 (UniProt P27694). The description is as above.
For test [3], the target named is Flag–UngΔ(152–313)–EYFP1–154 (UniProt P13051). The test is described as follows: split reporter.
In another test the target is Flag–Ung–EYFP1–154 (UniProt P13051). Nature of the test: split reporter.
In test [4] the target is Flag–Ung Δ(1-84)–EYFP1–154 (UniProt P13051). The test is described as follows: split reporter.
Test [5] has as its target Flag–PKA-RIα–EYFP1–154 (UniProt P10644). The test is described as follows: split reporter.
In test [6] the target is Flag–RPA1–EYFP1–154 (UniProt P27694). The test is described as follows: split reporter.

No constants are given. Whether binding was seen depends on the method and setting. In cells and extracts the contact can be indirect. Some entries that bind do so weakly or less than the wild type.

As for “HA–14-3-3σ–EYFP155–238 (from UniProt P31947 1-248)”, the binding entry in the test with Flag–PKA-RIα–EYFP1–154 [1] is reported as “binds”; with Flag–RPA1–EYFP1–154 [2] it was “no binding”; in test [3], “no binding”; in the test with Flag–Ung–EYFP1–154 it was “binds”; in test [4], “binds”.
Turning to “HA–14-3-3β–EYFP155–238 (from UniProt P31946 1-246)”, the binding entry in the test with Flag–PKA-RIα–EYFP1–154 [5] is on record as “binds”; in test [3], “no binding”; with Flag–Ung–EYFP1–154 it was “binds”; in test [4] it was “binds”; with Flag–RPA1–EYFP1–154 [6] it was “no binding”.
Turning to “HA–14-3-3τ–EYFP155–238 (from UniProt P27348 1-245)”, the binding result in the test with Flag–PKA-RIα–EYFP1–154 [5] is “binds”; in test [3], “no binding”; in the test with Flag–Ung–EYFP1–154 it was “binds”; in test [4], “binds”; in the test with Flag–RPA1–EYFP1–154 [6] it was “no binding”.
Regarding “HA–14-3-3γ–EYFP155–238 (from UniProt P61981 1-247)”, the binding entry in the test with Flag–PKA-RIα–EYFP1–154 [5] was “binds”; in test [3] it was “no binding”; with Flag–Ung–EYFP1–154, “binds”; in test [4], “binds”; with Flag–RPA1–EYFP1–154 [6] it was “no binding”.
“HA–14-3-3ε–EYFP155–238 (from UniProt P62258 1-255)”: the binding entry in the test with Flag–PKA-RIα–EYFP1–154 [5] is given as “binds”; in test [3], “no binding”; with Flag–Ung–EYFP1–154 it was “binds”; in test [4], “binds”; with Flag–RPA1–EYFP1–154 [6], “no binding”.
Regarding “HA–14-3-3η–EYFP155–238 (from UniProt Q04917 1-246)”, the binding result in the test with Flag–PKA-RIα–EYFP1–154 [5] was “binds”; in test [3], “no binding”; with Flag–Ung–EYFP1–154, “binds”; in test [4], “binds”; with Flag–RPA1–EYFP1–154 [6] it was “no binding”.
Take “HA–14-3-3ζ–EYFP155–238 (from UniProt P63104 1-245)”: the binding entry with Flag–PKA-RIα–EYFP1–154 [5] was “binds”; in test [3], “no binding”; in the test with Flag–Ung–EYFP1–154, “binds”; in test [4], “binds”; with Flag–RPA1–EYFP1–154 [6], “no binding”.

These data come from article PMC3840166.
